{"source": "paper PMC9911399", "about": "“Two distinct binding modes provide the RNA-binding protein RbFox with extraordinary sequence specificity”", "binders": {"B1": {"name": "UCAUGCC (DNA:RNA)", "RNA": "GGGAGACCGGAAUUCAGAUUGUCCUCAUGCCUUAAAUCCCGUCGUAGCCACCA", "DNA 1": "CAATCTGAATTCCGGTCTCCC", "DNA 2": "TGGTGGCTACGACGGGATT"}, "B2": {"name": "GUAGUAG (DNA:RNA)", "RNA": "B1 RNA with U25G, C26U, U28G, G29U, C30A, C31G", "DNA 1": "CAATCTGAATTCCGGTCTCCC", "DNA 2": "TGGTGGCTACGACGGGATT"}, "B3": {"name": "CGCAUGU (DNA:RNA)", "RNA": "GGGAGACCGGAAUUCAGAUUGUCCCGCAUGUUUAAAUCCCGUCGUAGCCACCA", "DNA 1": "CAATCTGAATTCCGGTCTCCC", "DNA 2": "TGGTGGCTACGACGGGATT"}, "B4": {"name": "AGUAGGA (DNA:RNA)", "RNA": "B3 RNA with C25A, C27U, U29G, U31A", "DNA 1": "CAATCTGAATTCCGGTCTCCC", "DNA 2": "TGGTGGCTACGACGGGATT"}, "B5": {"name": "ACCGGCG (DNA:RNA)", "RNA": "B1 RNA with U25A, A27C, U28G, C31G", "DNA 1": "CAATCTGAATTCCGGTCTCCC", "DNA 2": "TGGTGGCTACGACGGGATT"}, "B6": {"name": "UAGUGGC (DNA:RNA)", "RNA": "B1 RNA with C26A, A27G, C30G", "DNA 1": "CAATCTGAATTCCGGTCTCCC", "DNA 2": "TGGTGGCTACGACGGGATT"}, "B7": {"name": "ACAAGAU (DNA:RNA)", "RNA": "B1 RNA with U25A, U28A, C30A, C31U", "DNA 1": "CAATCTGAATTCCGGTCTCCC", "DNA 2": "TGGTGGCTACGACGGGATT"}, "B8": {"name": "AAGCUGA (DNA:RNA)", "RNA": "B3 RNA with C25A, G26A, C27G, A28C, U31A", "DNA 1": "CAATCTGAATTCCGGTCTCCC", "DNA 2": "TGGTGGCTACGACGGGATT"}, "B9": {"name": "UGUGAUA (DNA:RNA)", "RNA": "B3 RNA with C25U, C27U, A28G, U29A, G30U, U31A", "DNA 1": "CAATCTGAATTCCGGTCTCCC", "DNA 2": "TGGTGGCTACGACGGGATT"}}, "note": "Numbering of substitutions follows the chain as printed; changes in the protein carry UniProt numbers. The list shows a part of the results."}
{"target": "T1, RBFOX1 RRM (Homo sapiens, UniProt Q9NWB1 109-208)", "T1 sequence": "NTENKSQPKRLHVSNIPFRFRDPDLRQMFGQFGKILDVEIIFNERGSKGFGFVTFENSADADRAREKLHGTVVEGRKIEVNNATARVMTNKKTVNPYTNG", "assay": "EMSA; HiTS-Eq, 1 nM pool, 10 min; buffer printed only for the single-RNA assays: 10 mM Tris pH 7.5, 150 mM NaCl, 3.4 mM EDTA, 0.001% NP-40, 30 C", "conditions": "tags: His6 N-terminal (pET28a); label: 5' 32P", "procedure,_shortened": "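Purified RbFox RRM (wild type or mutant) was equilibrated for 10 min in 50 µL with 1 nM of a 5′-radiolabelled pool of RNA with 7 randomized nucleotides, its flanks annealed to DNA oligonucleotides, across increasing protein concentrations. Free RNA was separated by 8% native PAGE, excised, reverse-transcribed, PCR-barcoded and sequenced on an Illumina HiSeq 2500. Relative association constants came from read-count changes of each variant against the control reaction, normalised to the cognate motif.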"}
{"binder": "B1", "binding signal": "0.0112 KA relative to UGCAUGU"}
{"binder": "B2", "binding signal": "0.0103 KA relative to UGCAUGU"}
{"binder": "B3", "binding signal": "0.735 KA relative to UGCAUGU"}
{"binder": "B4", "binding signal": "0.00131 KA relative to UGCAUGU"}
{"binder": "B5", "binding signal": "0.00782 KA relative to UGCAUGU"}
{"binder": "B6", "binding signal": "0.00551 KA relative to UGCAUGU"}
{"binder": "B7", "binding signal": "0.00323 KA relative to UGCAUGU"}
{"binder": "B8", "binding signal": "0.00803 KA relative to UGCAUGU"}
{"binder": "B9", "binding signal": "0.0161 KA relative to UGCAUGU"}
